Data reported in PubChem BioAssay AID624170 (National Center for Advancing Translational Sciences (NCATS), 2012).
Among all 410,000 compounds or so, about 850 (0.21%) were called active. Inconclusive means that the source gave no clear call. Such entries were picked first, then a sample of the others. Calls come from the whole dose curve; as a rule, active = well fitted inhibition curve with a large enough effect; inconclusive = small, poorly fitted or top-dose-only effect, or another doubt; inactive = no such curve, though single readings can be large or run the other way. Potencies of inconclusive entries are doubtful fits and often do not repeat.

These molecules were tested against Glutaminase kidney isoform, mitochondrial (Homo sapiens) (UniProt O94925) (assay: qHTS for Inhibitors of Glutaminase (GLS)). Conditions: GLS enzymatic activity, qHTS titration; series mostly up to 45.5 µM.
Chain of UniProt O94925 (O94925 whole entry, looked up, canonical isoform): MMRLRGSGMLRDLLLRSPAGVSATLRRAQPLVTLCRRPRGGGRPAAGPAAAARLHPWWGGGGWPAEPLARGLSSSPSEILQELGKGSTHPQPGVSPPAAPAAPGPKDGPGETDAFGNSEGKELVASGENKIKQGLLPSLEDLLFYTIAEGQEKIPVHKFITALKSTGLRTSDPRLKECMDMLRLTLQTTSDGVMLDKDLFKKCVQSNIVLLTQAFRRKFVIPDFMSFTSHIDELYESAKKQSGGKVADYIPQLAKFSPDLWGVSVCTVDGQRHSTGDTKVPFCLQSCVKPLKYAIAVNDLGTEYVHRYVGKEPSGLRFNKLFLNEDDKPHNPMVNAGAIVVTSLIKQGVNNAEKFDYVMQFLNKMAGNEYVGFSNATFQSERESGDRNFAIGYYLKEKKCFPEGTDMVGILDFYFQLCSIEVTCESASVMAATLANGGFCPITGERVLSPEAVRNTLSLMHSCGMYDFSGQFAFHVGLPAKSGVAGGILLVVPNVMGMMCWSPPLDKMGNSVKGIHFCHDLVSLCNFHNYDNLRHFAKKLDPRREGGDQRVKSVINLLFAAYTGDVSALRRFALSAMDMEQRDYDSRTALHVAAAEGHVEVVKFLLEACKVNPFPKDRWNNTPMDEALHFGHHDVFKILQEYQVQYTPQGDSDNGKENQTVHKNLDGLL
Method in brief: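 Two-point fluorescence kinetic (t0, 30 min RT) for hKGA; glutamate detected via glutamate oxidase–HRP–Amplex Red. Substrate: 1 mM L-glutamine solution; buffer 45 mM KH2PO4, pH 8.2.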
Potency is the fitted concentration of half-maximal effect; tags give direction and shape of the fitted curve.

Potency, inconclusive:
CCOc1cc(/C=N/NC(=O)Cn2nc([N+](=O)[O-])cc2C)cc(Br)c1OCc1ccccc1F 3.98 µM [inhibitor, single point]
CC(=O)c1c(NCCc2ccccc2)cc(C)oc1=O 6.31 µM [inhibitor, single point]
Cc1onc(-c2ccccc2Cl)c1C(=O)N[C@@H]1C(=O)N2[C@@H]1SC(C)(C)[C@@H]2C(=O)O 22.4 µM [inhibitor, single point]
CC1COCC(C)N1C1=C(Cl)C(=O)c2ccccc2C1=O (configuration not stated) 35.5 µM [inhibitor, partial curve, poor fit]
COc1cc2[nH]c(=S)nc(NCCCOC(C)C)c2cc1OC 11.2 µM [inhibitor, partial curve]
COc1ccccc1CNC(=O)CCC1N=C2c3ccccc3N=C(SCC(=O)NCC3CCCO3)N2C1=O (configuration not stated) 12.6 µM [inhibitor, partial curve, poor fit]
Cc1nn(-c2ccc(Cl)cc2)c2sc(C(=O)N3CCN(c4ccccn4)CC3)cc12 35.5 µM [inhibitor, single point]
O=C1/C(=C/c2ccncc2)Oc2cc(OS(=O)(=O)c3ccccc3)ccc21 35.5 µM [inhibitor, single point]
Cc1cc(C)c(S(=O)(=O)Nc2cccc(C(=O)O)c2)cc1S(=O)(=O)Nc1cccc(C(=O)O)c1 17.8 µM [inhibitor, single point]
COc1cc(OC)cc(-c2c(-c3cccs3)c3cc(-c4cnc(OC)nc4)ccc3n2C)c1 3.16 µM [inhibitor, single point]
Cc1noc(C)c1C(=O)N1CCCC(Nc2ccc(C(C)C)cc2)C1 (configuration not stated) 31.6 µM [inhibitor, partial curve, poor fit]
COC(=O)C1=C(N)OC2=C(C(=O)CC(C)(C)C2)C1c1ccoc1 (configuration not stated) 35.5 µM [inhibitor, single point]
Oc1ccc(-c2nc(-c3ccc(O)c(O)c3)cs2)cc1 35.5 µM [inhibitor, single point]
COc1ccc(C(=O)C[n+]2ccccc2C)cc1 35.5 µM [inhibitor, single point]
COc1cc(/C=N/NS(=O)(=O)c2ccc(C)c([N+](=O)[O-])c2)ccc1O 14.1 µM [inhibitor, partial curve]
Cn1c(=O)n(Cc2ccccc2)c(=O)c2c1nc1n2CCN1Cc1ccco1 10 µM [inhibitor, partial curve]
Cc1cccc(NC(=O)c2nc(S(=O)(=O)Cc3ccccc3)ncc2Cl)c1 35.5 µM [inhibitor, partial curve, poor fit]
Cc1cc([N+](=O)[O-])c2[nH]c(C(=O)N/N=C/c3ccccc3C(=O)O)c(-c3ccccc3)c2c1 35.5 µM [inhibitor, single point]
Nc1ccccc1-c1nnc(SCc2ccccc2Cl)[nH]c1=O 6.31 µM [inhibitor, single point]
Cc1cc(-n2nc(C)cc2C)nc(NS(=O)(=O)c2ccccc2)n1 25.1 µM [inhibitor, single point]
COc1ccccc1-n1c(C)c(C(=O)O)c2cc(OC)c3ccccc3c21 28.2 µM [inhibitor, single point]
O=[N+]([O-])c1cc(Cl)cc(/C=N\Nc2ccccn2)c1O 35.5 µM [inhibitor, single point]
O=C(NCC1CCCO1)c1ccc(/C=N/O)nc1 (configuration not stated) 35.5 µM [inhibitor, single point]
COc1ccc(-c2cc(=O)oc3cc(OCC(=O)Nc4ccccn4)ccc23)cc1 22.4 µM [inhibitor, single point]
CC1(C)CC(=O)C/C(=N\NC(=O)C2CC23CCC3)C1 (configuration not stated) 8.91 µM [inhibitor, partial curve]
NCCCNc1ccc([N+](=O)[O-])cc1C(F)(F)F 35.5 µM [inhibitor, partial curve, poor fit]
COc1cccc(-c2csc3nc[nH]c(=O)c23)c1 11.2 µM [inhibitor, partial curve, poor fit]
COc1cc(-c2c(C#N)c(N)nc3c2CCCC3)ccc1O 35.5 µM [inhibitor, single point]
COc1cccc(C(N)c2nc(-c3csc4ccccc34)cs2)c1 (configuration not stated) 35.5 µM [inhibitor, single point]
Cc1cccnc1Nc1nc(-c2ccc(O)cc2)cs1 35.5 µM [inhibitor, single point]
CCOC(=O)C(C)Sc1nc2c(c(=O)[nH]c(=O)n2C)n1Cc1ccc(Cl)cc1 (configuration not stated) 35.5 µM [inhibitor, partial curve, poor fit]

Potency, active:
O=C(O)C1=CCC=CC1C(=O)O (configuration not stated) 11.2 µM
CCN(CC)c1ccc(N)cc1S(=O)(=O)Nc1ccccc1OC 7.08 µM

Potency, inactive:
O=C(CCNc1ccc(Cc2ccncc2)cc1)c1ccc([N+](=O)[O-])cc1
CC(C)(C)c1ccc2c(c1)OC(C(=O)N/N=C\c1ccccn1)CO2 (configuration not stated)
COc1ccc(-n2nc3c(c2NC(=O)CCl)CSC3)cc1
Cc1cc(C)c(NC(=O)Cn2c(=O)n(Cc3ccc(C(=O)NCc4ccco4)cc3)c(=O)c3sccc32)c(C)c1
CCN1CCN(Cc2c(O)ccc3cc(-c4ccc(OC)cc4)c(=O)oc23)CC1
CCOc1ccc(/C=C(\C#N)C(=O)Nc2sc3c(c2C(=O)OC)C(C(=O)OC)CC3)cc1OC (configuration not stated)
OCc1cn(-c2ccccc2)nn1
COCCn1cc(C(=O)NCc2ccco2)c2c3ccccc3n(C)c2c1=O
COC(=O)[C@]12CCCCC=C1N(Cc1ccc(Cl)cc1Cl)C(=O)[C@H](CC(=O)N1CCN(C(=O)C3CC3)CC1)C2
